# Laboratory results: PubChem BioAssay AID1745853 (National Center for Advancing Translational Sciences (NCATS), 2022)
# The list shows a part of the results. These are further read-outs of the screen, such as a control signal, another cell line or another target. No call is given for them.
# Assays:
# Assay in all cases: Primary Screen for Target Class Profiling of Small Molecule Inhibitors of Methyltransferases
# [1] = target: Glycine N-methyltransferase (Homo sapiens) (UniProt Q14749); details: purified enzyme, MTase-Glo SAH luminescence; measured here: GNMT inhibition; at 40 µM; stronger effect = lower value
# Outline: (§1)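 Each enzyme was reacted with SAM and its substrate, with compounds tested once at 40 uM; SAH formed was read by MTase-Glo luminescence.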
# [2] = target: Guanidinoacetate N-methyltransferase (Homo sapiens) (UniProt Q14353); details: purified enzyme, MTase-Glo SAH luminescence; measured here: GAMT inhibition; at 40 µM; stronger effect = lower value
# Outline: as §1
# [3] = target: Histamine N-methyltransferase (Homo sapiens) (UniProt P50135); details: purified enzyme, MTase-Glo SAH luminescence; measured here: HNMT inhibition; at 40 µM; stronger effect = lower value
# Outline: as §1
# [4] = target: Nicotinamide N-methyltransferase (Homo sapiens) (UniProt P40261); details: purified enzyme, MTase-Glo SAH luminescence; measured here: NNMT inhibition; at 40 µM; stronger effect = lower value
# Outline: as §1
# [5] = target: Phenylethanolamine N-methyltransferase (Homo sapiens) (UniProt P11086); details: purified enzyme, MTase-Glo SAH luminescence; measured here: PNMT inhibition; at 40 µM; stronger effect = lower value
# Outline: as §1
# % is scaled to controls: 0 for no effect and ±100 for the full control effect.
SMILES,"activity change, negative = inhibition [1] [%]","activity change, negative = inhibition [2] [%]","activity change, negative = inhibition [3] [%]","activity change, negative = inhibition [4] [%]","activity change, negative = inhibition [5] [%]"
COc1cccc(C(=O)NCCNc2nc3cc(C)cc(C)c3cc2C#N)c1,-9.1,-3.28,2.6,-28.3,-3.16
CC1CCC(NC(=O)C2(C)Cn3c(ccc3-c3ccco3)C(=O)N2CCc2ccccc2)CC1 (centres undefined),-5.09,0,5.84,-6.25,-0.293
Cn1nccc1C(=O)N1CCC2(CCCN(Cc3cccc(F)c3F)C2=O)C1 (centres undefined),-4,-2.68,-0.933,-6.89,-4.7
COc1ccc(NC(=O)c2cc3c(s2)CN(C2CCCC2)C3)c(OC)c1,-4.02,-4.95,-4.38,-3.27,-0.661
COC(=O)c1ccc2c(c1)[nH]c1ncnc(NCCCN3CCCCC3)c12,-0.128,4.51,-22.5,-31.3,-7.74
CC1OC(OC2C(OC3C(O[C@H]4CC[C@@]5(C)C(CC[C@]6(C)C5C(=O)C=C5C7CC(C)(C)CC(O)[C@]7(C)CC[C@]56C)C4(C)C)OC(C(=O)O)C(O)C3O)OCC(O)C2O)C(O)C(O)C1O (some centres undefined),-1.33,-10.5,-3.06,-18.9,0.347
CCCCN1C(=O)c2cc(C(=O)N3CCN(c4ccc(F)cc4)CC3)nn2CC1(C)C(=O)NC1CCCC1 (centres undefined),1.65,0,4.14,0.58,1.68
Cc1cc(C(=O)N2CCC3(CC2)CC(N2CCN(c4ccccn4)CC2)CCO3)n[nH]1 (centres undefined),-0.943,-1.05,-2.11,-0.809,-2.35
O=C(NCCc1ccc(Cl)cc1)C1CCc2nnc(C3CCN([S+](=O)([O-])c4ccccc4)CC3)n21 (centres undefined),-8.89,-3.62,-8.1,-14.3,-12.3
Cc1nc(-c2c3n(c(=O)n(Cc4ccccc4C(F)(F)F)c2=O)CCCCC3)no1,-2.89,-3.98,-1.33,-11.8,-7.76
CCC(C)NC(=O)c1ccc2c(=O)n(C)c3nnc(SCC(=O)Nc4ccc(Cl)cc4)n3c2c1 (centres undefined),0.954,2.05,-2.25,-1.93,-0.048
COCCNC(=O)C1c2ccccc2C(=O)N(Cc2ccco2)C12CCCCC2 (centres undefined),-5.5,-11.4,-4.93,-19.1,-15.1
CCOC(=O)C[C@@H]1C[C@@H](C(C)C)[C@H](CNC(=O)c2cccnc2)C=C1C,-5.41,-3.93,-0.983,-14,-10.1
CCCn1c(=O)c2ccc(Cl)cc2n2c(=O)n(Cc3ccc(F)cc3Cl)nc12,2.7,0,7.75,9.51,3.44
O=C1NC2(Cc3ccccc31)CN(C(=O)c1ccccc1)C2,-4.67,-1.92,-1.32,-10.2,-3.85
COc1ccc(CNC(=O)C2(C)Cn3cnc(C(=O)NCc4cccc(C)c4)c3C(=O)N2C2CC2)cc1 (centres undefined),-7.99,6.65,-3.25,-5.47,0.264
COCCCn1c(C)cnc1CC1CCN(C(=O)C2CCCCC2)CC1,-3.84,-4.47,-11.8,-10.6,0.155
Cc1ccc(CNC(=O)N2CCc3nnc(C4CC4)n3CC2)cc1,-1.21,0.314,0.295,-1.35,-4.23
Cc1cnc(C2CC2)n1C1CCN(C(=O)C2CC2)CC1,-1.91,-1.04,-32.4,-2.81,14.5
C[C@@H]1C(=O)O[C@H](C)[C@H]1CC(=O)[C@](C)(O)[C@H]1CC[C@@]2(O)C3=CC(=O)[C@@H]4C[C@@H](O)[C@@H](O)C[C@]4(C)C3CC[C@]12C (some centres undefined),-3.15,-3.43,7.72,-17.3,-11.8

SMILES,"activity change, negative = inhibition [1] [%]","activity change, negative = inhibition [2] [%]","activity change, negative = inhibition [3] [%]","activity change, negative = inhibition [4] [%]","activity change, negative = inhibition [5] [%]"
CC1(C(=O)NC2CC2)CCCc2cnc(Nc3cccnc3)nc21 (centres undefined),-11.5,-12.1,-4.67,-22,-13.6
CCN1CC2(CCN(Cc3nc(COC)no3)CC2)CC(c2ccccc2)C1=O (centres undefined),-5.37,-7.33,-2.38,-11.1,-5.46
COc1ccc(OC)c(S(=O)(=O)N2CCC([C@H]3[C@@H](OC)C(=O)N3C(C)C)CC2)c1,-6.87,2.11,-5.02,-7.65,-7.18
O=S(=O)(NC[C@H]1O[C@@H](CO)[C@@H](O)[C@H]1N1CCOCC1)c1ccc(Cl)cc1,-2.53,-6.88,-0.493,-7.1,-3.04
COc1ccc(C2(CNC(=O)[C@](C)(Cc3c[nH]c4ccccc34)NC(=O)Nc3ccc([N+](=O)[O-])cc3)CCCCC2)nc1,-2.63,-16.4,5.52,-27.7,-14.6
CCCn1c(=O)c2cc(F)ccc2n2c(SCc3cccc(OC)c3)nnc12,-2.87,1.35,6.56,-1.31,7.01
CCOCCCN1C(=O)c2cc3sccc3n2CC1(C)C(=O)NC1CCCCCC1 (centres undefined),-4.39,1.97,-8.11,2.69,-2.31
CC(O)/C=C/C1(O)C(C)C(O[C@@H]2O[C@H](CO)[C@@H](O)[C@H](O)[C@H]2O)C(O)CC1(C)C (some centres undefined),-1.97,-11.4,-4.43,-22,-2.35
O=c1onc2n1-c1cc(Br)ccc1OC2,-6.31,3.29,3.5,-6.82,-0.51
COC(=O)c1ccc(N2CCN(C)CC2)c(NC(=O)c2cccc(OC)c2)c1,-1.27,4.85,2.21,-14.9,-6.63
c1cc(CN(CCN2CCCCC2)CC2CCCN(C3CCCC3)C2)c2nonc2c1 (centres undefined),0.46,0.945,-18.4,-4.98,-0.576
COC[C@@H]1CN(S(=O)(=O)c2cnc[nH]2)C[C@H]1c1ccccn1,-4.42,18.3,-3.27,-7.28,1.15
COc1cc(C2CC(=O)Nc3c2cc(Br)c2ccccc32)cc(OC)c1OC (centres undefined),-3.7,-5.4,7.04,-14.2,-0.406
Cc1ccc(CNC(=O)N2CCC(c3nc(CCOCC4CCOCC4)no3)C2)cc1 (centres undefined),-1.73,-7.46,-1.35,-1.76,-3.23
O=C(Cn1nc2n(CCc3ccccc3)c(=O)c3ccccc3n2c1=O)Nc1ccc2c(c1)OCCO2,3.31,5.48,2.24,-0.114,2.84
CCCN1C(=O)c2c(C(=O)NCc3ccccc3OC)ncn2CC1(C)C(=O)NC1CCCC1 (centres undefined),-1.74,0,3.16,-1.29,3.98
CCc1nc2c(c(-c3ccc(Cl)cc3)n1)CN([S+](=O)([O-])c1c(C)noc1C)CC2,-3.46,-4.37,-1.76,-8.01,-30.8
Cn1cnc(C(=O)N2CCC3(CC2)CC(N(Cc2ccccc2)C2CC2)CCO3)c1 (centres undefined),-3.89,-0.733,-1.13,-7.24,-1.67
CCCSCCCNC(=O)c1cc2n(n1)CC(C)(C(=O)NCc1ccc(C)cc1)N(C)C2=O (centres undefined),6.9,1.09,7.99,6.34,5.79
CC(C)CCn1c(=O)c2ccccc2n2c(CCC(=O)NCc3ccc(Cl)cc3)nnc12,-7.31,3.39,1.85,1.24,-4.03

SMILES,"activity change, negative = inhibition [1] [%]","activity change, negative = inhibition [2] [%]","activity change, negative = inhibition [3] [%]","activity change, negative = inhibition [4] [%]","activity change, negative = inhibition [5] [%]"
CC(C)Cn1c(=O)c2ccc(C(=O)NC(C)C)cc2n2c(=O)n(CC(=O)NC3CCCCC3)nc12,1.9,5.92,2.81,0.099,0.614
CCOC(=O)NCCCC(=O)NCCc1ccccc1,3.43,,20.4,0.041,7.54
O=C(O)c1n[nH]c2c1C[C@H]1C[C@@H]21,-0.067,2.16,9.56,-8.51,3.25
O=C(c1ccc2c(=O)nc3c(-c4ccccc4F)n[nH]n3c2c1)N1CCN(c2ccccn2)CC1,-12.4,1.15,3.14,-1.75,2.96
O=C(c1cn(CCC2CCCCN2)nn1)N1CCc2nc[nH]c(=O)c2CC1 (centres undefined),-0.278,-0.969,-8.01,-0.875,-6.7
O=C(Nc1ccc2ncnc(N3CCCCC3)c2c1)c1cc(F)ccc1F,-91.6,-89.1,-92.3,-90.6,-80.4
CCOC(=O)c1cc2n(n1)CC(C)(C(=O)NC1CCCC1)N(c1cccc(Cl)c1)C2=O (centres undefined),5.01,4.45,3.79,4,4.07
O=C(CCc1nnc2n(Cc3ccc(F)cc3)c(=O)c3ccccc3n12)NCCN1CCOCC1,-6.5,0,3.54,7,-0.994
COCCCNc1nc2c(-c3cccc(C)c3)nnn2c2ccc(Cl)cc12,-3.85,3.56,2.7,-7.36,-2.94
Cc1ccc(/C(=C\CN2CCCC2)c2ccccn2)cc1,4.41,12.5,13.3,-7,-0.795
Cc1ccc(Cn2c(=O)c3ccccc3n3c(-c4ccccc4C)nnc23)cc1,-5.2,1.71,7.09,-3.78,1.02
COc1ccc(NC(=O)CSc2nnc3n(Cc4ccc(F)cc4)c(=O)c4ccccc4n23)cc1,1.11,0,10.4,2.65,3.6
C=C[C@H]1[C@H](O[C@@H]2O[C@H](CO)[C@@H](O)[C@H](O)[C@H]2O)OC=C(C(=O)OC)[C@H]1CCO,2.48,7.01,3.43,-5.53,6.49
CCc1cc2c(cc3n2CC(C)(C(=O)NC2CCCCC2)N(CCCN2CCCCC2)C3=O)s1 (centres undefined),4,0,10,10.5,3.73
O=C(c1ccnc(CC2CC(=O)N(c3ccccc3)C2)c1)N1CCCCC1 (centres undefined),-2.06,-3.94,-16.8,-10.2,7.68
CCC(=O)N1Cc2ccccc2CC2(CCCN2CC2CCOCC2)C1 (centres undefined),-4.91,-7.84,-5.3,-18.3,-6.71
CCOc1ccc(S(=O)(=O)N2CCCCCC2)c2ccccc12,-2.87,-9.87,11.6,-19.5,-4.15
CC(C)C(=O)O[C@@H]1[C@@H](O)[C@@H](O[C@H]2O[C@H](CO)[C@@H](O)[C@H](O)[C@H]2O)O[C@H](CO)[C@H]1O,0,20.4,13.6,7.15,3.19
COc1ccc(OC)c2c1cc1n2CC(C)(C(=O)NC2CCCCC2)N(Cc2cccc(F)c2)C1=O (centres undefined),-12.3,-2.76,-4.95,-5.27,-7
